From the supplement of paper PMC3334620
Whole data set: some 33,000 sequences, median “E-score (-0.5 to 0.5)” near -0.035, cut for the highest 2% near 0.35. The list shows a part of the results.

Target: T1, Pdr3 (UniProt P33200)
T1 sequence: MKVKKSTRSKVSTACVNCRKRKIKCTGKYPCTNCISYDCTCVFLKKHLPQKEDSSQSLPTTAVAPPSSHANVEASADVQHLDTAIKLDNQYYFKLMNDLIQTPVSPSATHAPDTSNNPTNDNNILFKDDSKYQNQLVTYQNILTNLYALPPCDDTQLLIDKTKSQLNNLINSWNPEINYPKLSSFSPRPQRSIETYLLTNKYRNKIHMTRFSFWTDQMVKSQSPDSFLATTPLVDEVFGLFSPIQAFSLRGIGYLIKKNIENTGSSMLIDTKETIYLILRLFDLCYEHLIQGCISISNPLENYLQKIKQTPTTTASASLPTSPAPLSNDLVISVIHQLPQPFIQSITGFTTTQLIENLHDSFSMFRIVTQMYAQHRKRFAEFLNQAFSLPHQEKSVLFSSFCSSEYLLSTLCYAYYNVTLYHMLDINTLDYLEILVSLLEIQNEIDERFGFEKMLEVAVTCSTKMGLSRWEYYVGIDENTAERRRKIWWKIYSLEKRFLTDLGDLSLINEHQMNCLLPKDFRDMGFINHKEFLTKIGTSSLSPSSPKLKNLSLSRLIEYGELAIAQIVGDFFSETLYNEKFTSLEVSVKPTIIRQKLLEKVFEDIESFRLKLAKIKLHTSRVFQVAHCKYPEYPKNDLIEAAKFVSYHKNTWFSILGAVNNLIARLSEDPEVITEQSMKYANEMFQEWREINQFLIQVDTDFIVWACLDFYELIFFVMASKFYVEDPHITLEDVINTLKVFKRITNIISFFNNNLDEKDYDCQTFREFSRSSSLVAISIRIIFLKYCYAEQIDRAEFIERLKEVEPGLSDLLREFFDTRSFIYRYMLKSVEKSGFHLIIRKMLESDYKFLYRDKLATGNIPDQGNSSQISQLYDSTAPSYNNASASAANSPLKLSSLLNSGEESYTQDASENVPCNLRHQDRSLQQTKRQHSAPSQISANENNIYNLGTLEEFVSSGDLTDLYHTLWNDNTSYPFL
Assay: PBM E-score (8-mer binding enrichment) (E-score (-0.5 to 0.5)); higher = stronger / more preferred TF binding; most listed sequences are background and not binding sites
Details: protein concentration: 200 nM; construct: GST-full length
Description: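 Universal 'all 10-mer' protein binding microarrays (Agilent AMADID 015681) probed with GST-tagged S. cerevisiae TFs (full-length or DBD) made by in vitro transcription/translation (PURExpress), about 100-200 nM. Bound TF was detected with fluorescent anti-GST. Each ungapped 8-mer (which stands for itself and its reverse complement) is scored by the PBM enrichment score (E-score), a modified Wilcoxon-Mann-Whitney statistic from -0.5 to +0.5, computed with the Universal PBM Analysis Suite. Scale: above 0.35 generally sequence-specific binding.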

Sequence | PBM E-score
CTCCGGCA | 0.34
CAGCGTAC | -0.099
CTCCTTTC | 0.0464
AAGCTTTA | -0.211
ACTCCGAG | 0.28
GCATCTAC | -0.0209
CTGCTCTC | -0.141
GACGACCC | -0.104
CGCCGTAC | 0.0518
ACAAAACC | 0.0662
GACAGATC | 0.0794
AACTCCCT | -0.238
CATTTATC | -0.125
ACCTCGGG | 0.158
GAGGGTAA | -0.0969
ACTCAATG | 0.0123
GTTTTATA | 0.153
ACGATTCT | 0.0192
ACGTGTCA | -0.118
GCGGTGAC | -0.135
TAAGGCCA | -0.0519
CTACGCGC | 0.0629

Sequence | PBM E-score
GCGATTGA | -0.15
ACAGTTCT | 0.082
CGAGCAAG | -0.0857
TCTGCGAA | -0.305
GCGGGGCA | 0.129
CAGCTTTC | -0.0262
AACAGAAG | -0.0894
ACTCAGTA | -0.128
GACTCAGC | -0.192
CCACAAGC | -0.126
CAACGCCG | 0.117
CCGTGTAA | 0.117
CTACTCAA | -0.0942
AAGGCACC | -0.00529
ACGGTGAG | -0.00232
CATCCTGA | 0.0884
CCATGGTA | -0.158
GAGATCGC | 0.0558
ACACGTTG | -0.264
AGAAACGA | 0.0182
ATGCCCCG | 0.174
ACATCCCC | 0.245

Sequence | PBM E-score
CCCCCAAA | -0.316
TACCGCAA | 0.0565
CCTCTGAG | -0.0893
CTCCGTAA | 0.185
CGCGACAG | 0.076
CGCACAGA | -0.122
CCCATCTC | 0.0797
AAGCGGAG | 0.0882
GTAGGAGA | -0.0454
AAAGACAG | 0.0703
CCCAGTAG | -0.11
GGCATAAA | -0.0711
GACCTGAC | -0.081
ACAGTGAA | -0.136
AGAGGGCG | 0.126
GAGGCCCA | -0.0272
AGCCCCTA | -0.104
AATGTACC | -0.281
TGAACTAA | -0.114
CTCGAGAG | -0.107
GGATAACC | 0.117
AAGTTATC | -0.082

Sequence | PBM E-score
CCTACTCA | -0.00584
CGTTTCCC | 0.21
ACAAGCGG | 0.135
AATAGACC | 0.116
ACCGTAAT | 0.0483
GATGTCAC | 0.0632
ATGAGAAC | -0.0344
ATCATGAC | -0.0412
ACTATCAA | 0.0687
CCAGCCGA | 0.143
CGGAACTC | 0.452
CCCTTGAC | -0.0397
CAACTATG | -0.113
CGATTTCA | -0.0484
CAGGACTA | -0.092
CTCGTTTA | -0.0756
CGTTTCCA | -0.0281
AAGATCTT | 0.00268
CGGCGTCA | 0.0809
CTTTTTAA | -0.194
